{"source": "PubChem BioAssay (NCI)", "test_system": "SF-268 CNS", "assay": "NCI-60 one-dose screen, 48 h (100 = growth as untreated, 0 = no growth, -100 = all killed)", "note": "More than one record can exist for a structure, and the calls need not agree.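 Method: cells in 96-well plates; compound added at one concentration; 48 h incubation; percent growth measured; values under 10 scored active.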 For part of its entries the source gives two or more results. Only these are listed. An entry can have further records. These are repeated runs of one drug, at the concentration stated with the values; one value stands for one run. Brackets with × count equal records among those shown.", "data": [{"smiles": "COc1cccc2c1C(=O)c1c(O)c3c(c(O)c1C2=O)C[C@@](O)(C(=O)CO)C[C@@H]3OC1CC(N)C(O)C(C)O1", "note": "(stereo not given in full)", "values": [{"measurement": "growth", "setting": "0.25 µM, runs of 2018", "value": "inactive: 32.7, 33 (2×), 34.2, 33.6, 34.8, 34.9, 36.5, 33.1, 33.2, 30.6, 37.4, 35.2, 33.4, 35.9, 33.8, 30.2 (2×), 33.3, 33.9, 34, 37.5, 34.4, 30, 29.3, 26.4, 27.7, 34.6, 34.3, 21.6, 35.1 (2×), 31.4, 35.6, 25.4, 22.6, 36.3, 36.1, 32.5, 37, 39.5, 39.9, 39.6, 39.1, 34.5, 20.7, 17.5%"}, {"measurement": "growth", "setting": "0.25 µM, runs of 2019", "value": "inactive: 27.1, 18.1, 22.8, 17.6, 20.8, 22.5, 21.3, 21.6, 19.5, 22.6, 21.9, 18, 32.3, 26.4, 21.2, 30.9, 24.3 (2×), 25.3, 22.4, 27.6, 31.2, 20.7, 29, 23.8, 24.1, 24.8, 23, 28.3, 26, 35.1, 25.2, 25.6, 35.7, 31.5, 27.2, 32.6, 32.7, 23.7, 28.7, 24.6%"}, {"measurement": "growth", "setting": "0.25 µM, runs of 2020", "value": "inactive: 27, 27.3, 33.6, 31.3, 30.4, 29.3, 24.6, 35.2, 34.8, 29.7, 35.8, 30.7, 32.7, 33, 51.4, 31.8, 42.1, 37.4, 33.5, 37.8, 37.5, 29.6, 33.1, 41.6%"}, {"measurement": "growth", "setting": "0.25 µM, runs of 2021", "value": "inactive: 42.2, 50.4, 32.9 (2×), 35.9 (3×), 33.8, 30, 30.9 (2×), 36.8 (2×), 35.4 (2×), 31, 34.6 (2×), 34.4, 36, 35.5, 35.2, 30.5, 26.5, 25.6, 30.4, 26.8, 28.8, 29.4, 30.2, 29.6, 36.9, 27.7, 35.6, 38.2, 36.1, 30.6, 29, 41.7, 31.2, 28.6, 31.3, 26.7 (2×), 30.3, 24.6 (2×), 26.3, 33.7, 31.7, 32%"}, {"measurement": "growth", "setting": "0.25 µM, runs of 2022", "value": "inactive: 14.3, 15.1, 22.5, 17.5, 18.4, 25.5, 25.6, 30.8 (2×), 25.1, 32.7, 38.2, 21.7, 35.9, 26.2, 30.7, 21.5, 62.8, 73.2, 65.6, 58.3, 76.1, 28.8, 25.3, 44.1, 32.5% and active: 1.77%"}, {"measurement": "growth", "setting": "25 µM, runs of 1991", "value": "active: -15.7, -50.7, -52.6, -60.8, -100, -57.4, -60.6, -55, -48.2, -40.9, -62.8, -29.7, -53.4, -54.6, -51.8, -50.8, -50.1, -54.2, -50.2%"}, {"measurement": "growth", "setting": "25 µM, runs of 1992", "value": "active: -51.8, -42.7, -53.7 (2×), -40.2, -49 (3×), -54.8, -52.6, -60.3, -50.1, -58.1, -49.1, -58.4 (2×), -49.7, -47.8, -55.9, -61, -52.2, -53.4, -57.4 (2×), -48.8, -40, -65, -49.5, -50.9, -73.1, -58.7, -42.4, -3.23, -43.5, -71.3, -51, -63.1 (2×), -62.8, -63 (3×), -35.2, -44.1, -44.4, -55.8, -67.8, -45.2, -94, -64, -47.6, -55.3, -67, -58.2 (3×), -54.1 (2×), -65.4, -46.6, -54.9, -43.8, -72.7, -63.9, -61.9, -66.7, -68.6, -60.4, -69.1, -5.64, -47.7 (2×), -45.9, -51.5, -51.6, -38.9, -52.9, -78.3, -48.4, -74.8, -59, -67.3, -54.5, -53.3, -49.3, -47.2 (2×), -51.2, -62.1, -27.4, -23.3, -52.8, -65.6, -66.9, -56.1, -57.8, -52.7, -39.5, -42.1, -78.5, -71.6, -36.8, -68.4, -35.5, -38.6, -63.2, -51.1 (2×), -41.6, -27.7, -42.9, -45.4, -50, -53.9, -59.6, -49.9% and inactive: 104%, 13.2%"}, {"measurement": "growth", "setting": "25 µM, runs of 1993", "value": "active: -46.7, -24.2, -33.7, -33.8, -13.4, -66, -20.5, -54.8 (2×), -48.1, -25.3, -52.2, -43.9, -22.1, -40.9, -42.8, -41.3, -34.4, -18.9, -67.8, -35.8, -18.3, -38.1, -36.3, -32.5, -58.9, -52.4, -28.1, -1.69, -41, -50.4, -26.8, -29.1, -27.1, -21.1, -29.9, -44, -38.3, -60.4, -27.4, -76.2, -26.4, -45.9, -50.2, -25.9, -55.2, -44.6%"}, {"measurement": "growth", "setting": "25 µM, runs of 1994", "value": "active: -38.9, -56.6, -48.4, -26.9, -6.43, -51.5, -41.5, -13.9, 4.19, -50.4, -42.9, -51.3, -25.5, -51.9, -30.7, -72.2, -35.1, -32.3, -47.8, -44.9, -41.2, -50.1, -35.7, -25.9, -75.7, -47.7, -39.4, -35, -49.2, -40.9, -29.8% and inactive: 80.7%, 21%, 107%"}, {"measurement": "growth", "setting": "25 µM, runs of 1995", "value": "active: -40.1 (2×), -30.5, -33.4, 1.93, -47.4, -53.6, -51.9, -27.1, -48.1, -49.5, -54.8, -59.2, -24.9 (2×), -47.8, -49.4, -51.2, -40.2, -50.2, -49.2, -50.8, -43.1, -70.7, -16.1, -36.1, -35.1 (2×), -51.7, -88.1, 5.47, -32, -30.9, -31.1, -32.9, -36.7, -48.4, -17.1, -29.4, -28.3, -39.6%"}, {"measurement": "growth", "setting": "25 µM, runs of 1996", "value": "active: -38.3, -21.9, -22.1, -22.7, -11.4, -58.8, -4.41, -11.7, -18.4, -15.8, -17.7, -24.1, -44.7, -18.1, -18.6, -30.3, -51.9, -41.5, -29.8, -26.2, -49.8, -39.5 (2×), -34.8, -43.9, -9.21, -46, -42.5, -43.5, -52.1, -45.1, -42.2, -28.2, -56.1, -46.8, -43, -46.4, -64.1, -28.9, -37.9, -52.7, -38.7, -37.7, -58.6, -38, -20.5, -34.6, 8.09, -58.7, -60, -44.1, -49.3% and inactive: 98.3%"}, {"measurement": "growth", "setting": "25 µM, runs of 1997", "value": "active: 3.74, -38, -15.5, -56.1, -29.4, -48.7, -51.9, -19.5, -43.4, -58, -40.9, -67, -46.3, -50.3, -37.5, -51.1 (2×), -59.4, -42.8, -47.7, -35.9, -52.8, -40, -62.1, -36 (2×), -34.2, -41.5, -50.2, -35.6, -46, -42.1, -58.5, -45.6, -40.8, -26.5, -40.7, -44.9, -49.7, -10.8, -49.5, -55.1, -52.2, -49%"}, {"measurement": "growth", "setting": "25 µM, runs of 1998", "value": "active: -30.8, -51.9, -50.9, -27.1, -67.7, -40.3, -71.7 (2×), -46.8, -72, -86.2, -74.4, -76.5, -46.7, -62.9, -76.4, -90.8, -24.4, -43.6, -69.2, -70, -49.7, -43.5, -28.4, -35.3, 8.41%"}, {"measurement": "growth", "setting": "25 µM, runs of 1999", "value": "active: -91.4, -73.9, 7.34, -69.2, -73.7, -60.2, -40.3, -48.8, -33.1, -49.4, -31.4, -39.2, -15.3, -22.3, -33.9, -9.65, -12, -7.17, -26.1, -32.3, -14.6, -19.6, -22.2, -15, -9.98, 2.2, -100 (2×), -88.7 (2×), -64.1, -79.7, -40, -57.5, -6.04, -6.18, -9.21, -8.85, -22.5, 0.397, -48.1, -14.1, -48.4%"}, {"measurement": "growth", "setting": "25 µM, runs of 2000", "value": "active: -100% (2×), -50.3%"}]}]}
